These results are taken from article PMC5173324.

By UniProt entry, the sequences of proteins in these tests, tags left out. Where a name states a change or a piece, a line headed by the entry shows the natural chain unless it says otherwise.
UniProt O43865: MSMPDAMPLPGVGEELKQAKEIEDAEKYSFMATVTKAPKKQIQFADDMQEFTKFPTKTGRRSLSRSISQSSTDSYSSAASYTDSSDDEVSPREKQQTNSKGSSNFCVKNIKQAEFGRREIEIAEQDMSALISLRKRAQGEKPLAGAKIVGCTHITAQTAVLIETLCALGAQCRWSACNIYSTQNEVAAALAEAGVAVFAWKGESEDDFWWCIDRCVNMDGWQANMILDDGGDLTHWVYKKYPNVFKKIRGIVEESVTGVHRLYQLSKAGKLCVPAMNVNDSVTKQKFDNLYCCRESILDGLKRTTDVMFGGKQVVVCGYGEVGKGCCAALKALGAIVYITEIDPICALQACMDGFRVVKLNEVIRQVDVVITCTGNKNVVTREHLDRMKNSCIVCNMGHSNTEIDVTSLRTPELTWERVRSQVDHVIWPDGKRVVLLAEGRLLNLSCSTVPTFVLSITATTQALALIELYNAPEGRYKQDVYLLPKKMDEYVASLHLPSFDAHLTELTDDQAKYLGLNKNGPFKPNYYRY
UniProt Q14643: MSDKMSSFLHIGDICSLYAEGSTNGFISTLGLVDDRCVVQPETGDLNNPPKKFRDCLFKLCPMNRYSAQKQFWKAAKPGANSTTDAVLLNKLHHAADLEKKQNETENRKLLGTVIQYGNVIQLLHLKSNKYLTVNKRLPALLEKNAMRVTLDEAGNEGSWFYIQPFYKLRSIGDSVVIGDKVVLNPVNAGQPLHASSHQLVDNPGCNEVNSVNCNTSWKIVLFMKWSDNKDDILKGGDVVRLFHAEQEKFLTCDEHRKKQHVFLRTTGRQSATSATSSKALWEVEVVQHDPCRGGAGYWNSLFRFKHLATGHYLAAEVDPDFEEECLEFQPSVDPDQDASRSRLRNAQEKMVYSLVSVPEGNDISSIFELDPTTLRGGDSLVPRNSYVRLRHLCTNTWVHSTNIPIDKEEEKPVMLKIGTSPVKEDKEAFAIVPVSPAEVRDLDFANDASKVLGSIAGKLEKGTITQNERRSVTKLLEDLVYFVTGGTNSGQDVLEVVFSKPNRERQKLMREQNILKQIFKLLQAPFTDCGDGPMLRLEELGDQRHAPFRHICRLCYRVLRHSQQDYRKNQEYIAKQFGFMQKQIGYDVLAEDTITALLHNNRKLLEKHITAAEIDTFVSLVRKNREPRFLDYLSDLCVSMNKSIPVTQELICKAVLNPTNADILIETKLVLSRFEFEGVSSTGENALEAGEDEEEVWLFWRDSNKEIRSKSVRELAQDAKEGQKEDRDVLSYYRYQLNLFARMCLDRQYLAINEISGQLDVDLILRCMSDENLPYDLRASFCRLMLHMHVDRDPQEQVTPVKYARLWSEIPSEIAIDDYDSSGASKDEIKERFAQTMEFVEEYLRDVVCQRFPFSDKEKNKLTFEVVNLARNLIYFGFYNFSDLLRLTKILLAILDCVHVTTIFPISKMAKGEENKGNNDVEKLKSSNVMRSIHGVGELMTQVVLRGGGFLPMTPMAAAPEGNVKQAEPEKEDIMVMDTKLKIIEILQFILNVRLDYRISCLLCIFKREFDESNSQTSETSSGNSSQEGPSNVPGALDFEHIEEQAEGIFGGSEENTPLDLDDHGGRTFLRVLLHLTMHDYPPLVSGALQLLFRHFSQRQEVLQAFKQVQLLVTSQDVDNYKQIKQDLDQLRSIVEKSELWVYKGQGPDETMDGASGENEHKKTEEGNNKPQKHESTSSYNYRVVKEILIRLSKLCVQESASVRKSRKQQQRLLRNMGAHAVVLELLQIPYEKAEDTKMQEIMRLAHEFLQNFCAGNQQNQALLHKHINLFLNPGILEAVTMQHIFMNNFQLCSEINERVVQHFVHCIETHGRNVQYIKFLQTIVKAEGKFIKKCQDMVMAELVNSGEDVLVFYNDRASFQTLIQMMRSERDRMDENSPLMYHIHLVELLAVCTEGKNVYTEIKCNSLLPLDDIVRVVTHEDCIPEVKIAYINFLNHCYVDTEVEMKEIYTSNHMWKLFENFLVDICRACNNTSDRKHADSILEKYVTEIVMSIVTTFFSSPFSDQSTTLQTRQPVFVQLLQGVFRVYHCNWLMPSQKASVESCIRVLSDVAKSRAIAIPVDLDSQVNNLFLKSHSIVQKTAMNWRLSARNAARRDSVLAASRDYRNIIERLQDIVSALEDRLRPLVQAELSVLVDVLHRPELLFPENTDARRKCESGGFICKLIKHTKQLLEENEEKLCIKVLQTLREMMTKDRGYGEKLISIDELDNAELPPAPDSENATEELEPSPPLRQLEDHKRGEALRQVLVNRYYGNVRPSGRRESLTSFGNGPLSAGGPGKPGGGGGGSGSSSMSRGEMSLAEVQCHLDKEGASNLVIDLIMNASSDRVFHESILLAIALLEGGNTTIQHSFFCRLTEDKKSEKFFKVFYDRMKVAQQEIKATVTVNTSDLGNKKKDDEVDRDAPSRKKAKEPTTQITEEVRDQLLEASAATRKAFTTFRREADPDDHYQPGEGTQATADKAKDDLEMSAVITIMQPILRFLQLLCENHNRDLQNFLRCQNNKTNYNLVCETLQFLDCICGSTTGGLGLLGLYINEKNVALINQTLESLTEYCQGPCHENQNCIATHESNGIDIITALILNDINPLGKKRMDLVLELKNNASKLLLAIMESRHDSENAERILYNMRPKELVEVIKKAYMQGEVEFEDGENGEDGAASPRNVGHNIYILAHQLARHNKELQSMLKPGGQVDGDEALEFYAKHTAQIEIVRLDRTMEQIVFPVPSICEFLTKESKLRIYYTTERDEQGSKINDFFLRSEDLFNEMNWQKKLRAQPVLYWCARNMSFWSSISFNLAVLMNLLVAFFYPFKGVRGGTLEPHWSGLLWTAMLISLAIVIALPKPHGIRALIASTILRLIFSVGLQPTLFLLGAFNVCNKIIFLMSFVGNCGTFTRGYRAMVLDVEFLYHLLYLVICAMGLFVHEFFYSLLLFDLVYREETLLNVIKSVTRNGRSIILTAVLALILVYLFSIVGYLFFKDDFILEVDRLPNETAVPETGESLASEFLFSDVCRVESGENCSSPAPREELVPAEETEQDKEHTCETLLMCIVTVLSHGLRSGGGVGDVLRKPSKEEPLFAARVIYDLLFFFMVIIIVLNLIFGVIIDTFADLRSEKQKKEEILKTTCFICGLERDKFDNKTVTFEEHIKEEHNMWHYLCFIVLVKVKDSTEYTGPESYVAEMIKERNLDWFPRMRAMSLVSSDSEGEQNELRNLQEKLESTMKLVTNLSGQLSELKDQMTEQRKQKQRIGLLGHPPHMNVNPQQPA
UniProt Q14571: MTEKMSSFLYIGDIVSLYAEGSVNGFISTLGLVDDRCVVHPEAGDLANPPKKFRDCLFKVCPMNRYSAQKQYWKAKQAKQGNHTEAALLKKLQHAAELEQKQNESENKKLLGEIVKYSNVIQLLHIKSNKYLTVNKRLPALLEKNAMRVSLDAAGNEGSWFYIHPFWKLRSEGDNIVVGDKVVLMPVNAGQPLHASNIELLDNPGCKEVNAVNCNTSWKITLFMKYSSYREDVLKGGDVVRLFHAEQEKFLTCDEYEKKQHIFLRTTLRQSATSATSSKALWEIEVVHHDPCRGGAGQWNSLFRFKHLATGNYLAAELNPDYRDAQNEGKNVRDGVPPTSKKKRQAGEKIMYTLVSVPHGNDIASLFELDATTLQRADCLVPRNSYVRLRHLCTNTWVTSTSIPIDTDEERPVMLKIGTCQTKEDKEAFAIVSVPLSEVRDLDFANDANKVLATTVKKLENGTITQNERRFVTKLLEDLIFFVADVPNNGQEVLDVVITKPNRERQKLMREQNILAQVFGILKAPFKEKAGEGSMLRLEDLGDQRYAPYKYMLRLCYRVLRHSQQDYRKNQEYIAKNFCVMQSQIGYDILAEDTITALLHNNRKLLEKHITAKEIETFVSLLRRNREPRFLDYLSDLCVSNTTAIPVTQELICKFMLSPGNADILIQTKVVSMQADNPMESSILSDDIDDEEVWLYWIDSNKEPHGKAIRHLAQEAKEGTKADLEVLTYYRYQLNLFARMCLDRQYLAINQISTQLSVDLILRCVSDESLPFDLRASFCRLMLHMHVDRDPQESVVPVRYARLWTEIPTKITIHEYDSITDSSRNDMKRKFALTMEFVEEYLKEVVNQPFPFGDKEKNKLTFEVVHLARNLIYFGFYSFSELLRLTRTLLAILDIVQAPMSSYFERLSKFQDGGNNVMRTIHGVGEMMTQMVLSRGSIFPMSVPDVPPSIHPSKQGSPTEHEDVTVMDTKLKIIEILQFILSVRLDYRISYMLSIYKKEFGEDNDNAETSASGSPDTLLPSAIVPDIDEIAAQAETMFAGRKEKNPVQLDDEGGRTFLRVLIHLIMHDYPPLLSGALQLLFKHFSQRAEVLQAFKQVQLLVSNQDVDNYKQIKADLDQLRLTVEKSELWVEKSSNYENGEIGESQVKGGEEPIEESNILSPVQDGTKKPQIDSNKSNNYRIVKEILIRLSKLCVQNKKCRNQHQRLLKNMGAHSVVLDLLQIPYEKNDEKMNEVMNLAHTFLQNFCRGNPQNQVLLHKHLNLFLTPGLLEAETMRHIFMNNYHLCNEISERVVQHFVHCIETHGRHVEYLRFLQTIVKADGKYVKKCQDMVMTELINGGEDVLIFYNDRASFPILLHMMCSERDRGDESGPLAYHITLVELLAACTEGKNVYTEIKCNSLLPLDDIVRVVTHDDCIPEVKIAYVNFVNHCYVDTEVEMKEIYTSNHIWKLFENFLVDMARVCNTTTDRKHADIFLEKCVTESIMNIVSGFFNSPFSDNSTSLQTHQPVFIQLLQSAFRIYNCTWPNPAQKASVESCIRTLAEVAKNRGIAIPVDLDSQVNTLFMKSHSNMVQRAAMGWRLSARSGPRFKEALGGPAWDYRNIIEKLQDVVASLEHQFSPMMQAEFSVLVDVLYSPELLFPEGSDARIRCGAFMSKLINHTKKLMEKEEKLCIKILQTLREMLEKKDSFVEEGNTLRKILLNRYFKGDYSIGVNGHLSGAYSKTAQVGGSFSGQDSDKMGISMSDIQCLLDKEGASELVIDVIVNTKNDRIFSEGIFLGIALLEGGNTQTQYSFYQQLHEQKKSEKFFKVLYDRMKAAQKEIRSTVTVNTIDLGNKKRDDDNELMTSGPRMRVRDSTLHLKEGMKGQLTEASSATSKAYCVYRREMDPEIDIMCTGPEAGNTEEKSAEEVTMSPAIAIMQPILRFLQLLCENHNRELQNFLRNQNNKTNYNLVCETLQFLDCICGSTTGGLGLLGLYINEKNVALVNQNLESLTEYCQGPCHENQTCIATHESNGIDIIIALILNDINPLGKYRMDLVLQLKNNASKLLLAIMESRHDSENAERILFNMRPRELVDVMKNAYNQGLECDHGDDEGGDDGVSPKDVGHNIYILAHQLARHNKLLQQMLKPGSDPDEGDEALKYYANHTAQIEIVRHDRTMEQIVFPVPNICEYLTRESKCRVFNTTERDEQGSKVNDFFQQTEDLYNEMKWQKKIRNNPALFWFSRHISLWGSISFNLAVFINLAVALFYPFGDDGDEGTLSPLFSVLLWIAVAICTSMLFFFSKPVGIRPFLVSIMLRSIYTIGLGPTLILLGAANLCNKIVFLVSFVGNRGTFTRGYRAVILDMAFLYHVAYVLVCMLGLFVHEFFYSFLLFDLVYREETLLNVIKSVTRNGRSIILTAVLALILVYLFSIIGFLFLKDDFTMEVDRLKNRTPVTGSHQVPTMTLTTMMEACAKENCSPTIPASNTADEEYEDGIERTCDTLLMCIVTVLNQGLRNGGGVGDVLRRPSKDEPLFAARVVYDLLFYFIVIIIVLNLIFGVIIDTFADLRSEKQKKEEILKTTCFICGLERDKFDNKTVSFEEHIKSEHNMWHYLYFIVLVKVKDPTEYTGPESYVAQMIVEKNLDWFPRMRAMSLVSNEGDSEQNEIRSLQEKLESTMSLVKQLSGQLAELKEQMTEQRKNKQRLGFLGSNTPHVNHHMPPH
UniProt Q80SW1: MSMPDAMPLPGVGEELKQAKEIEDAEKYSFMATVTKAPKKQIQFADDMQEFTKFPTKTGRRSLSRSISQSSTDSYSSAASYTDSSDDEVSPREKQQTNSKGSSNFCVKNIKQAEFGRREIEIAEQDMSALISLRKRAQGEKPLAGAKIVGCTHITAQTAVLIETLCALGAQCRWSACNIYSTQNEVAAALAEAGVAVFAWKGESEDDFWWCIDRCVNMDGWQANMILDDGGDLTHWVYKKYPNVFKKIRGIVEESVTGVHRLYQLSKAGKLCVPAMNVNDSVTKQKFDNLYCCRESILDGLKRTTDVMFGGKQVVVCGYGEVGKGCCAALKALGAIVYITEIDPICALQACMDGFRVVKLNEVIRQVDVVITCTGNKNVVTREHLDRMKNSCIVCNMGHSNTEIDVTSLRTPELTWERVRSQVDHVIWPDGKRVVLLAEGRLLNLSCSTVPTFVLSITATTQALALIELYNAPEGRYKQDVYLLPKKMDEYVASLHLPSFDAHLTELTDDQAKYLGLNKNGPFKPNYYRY

Read-outs that look alike come from different tables or passages of the source. These are yes or no findings as the source states them, for the method shown. For part of these data: In cells and extracts the contact can be indirect. Some entries that bind do so weakly or less than the wild type. For part of these data: Tags and fused reporters may be left off the sequences shown.

Assay [1] deals with T1, FLAG-Bcl2l10 (human) (UniProt Q9HD36).
T1 sequence: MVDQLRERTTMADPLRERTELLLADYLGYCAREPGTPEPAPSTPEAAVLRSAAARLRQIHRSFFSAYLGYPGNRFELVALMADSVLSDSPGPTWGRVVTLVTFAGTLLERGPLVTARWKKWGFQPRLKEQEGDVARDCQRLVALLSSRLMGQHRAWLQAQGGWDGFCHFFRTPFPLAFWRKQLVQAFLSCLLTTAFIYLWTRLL
The assay is described as follows: co-IP; tagged proteins co-expressed in HeLa cells, lysate in TNE buffer, 4°C, Protein-G sepharose, western blot.

Assay [2] has as its target GST-IP3BD (UniProt P11881). As to the kind of experiment: pull-down; 10 μg GST fusion protein incubated with lysates of transfected HeLa cells, TNE buffer, 4°C, glutathione-Sepharose 4B, elution with 20 mM glutathione, western blot; for HA-IRBIT also with co-expressed FLAG-Bcl2l10 and with 0, 1 or 10 µM IP3; only the target purified.
In assay [3] the target is endogenous IRBIT (human (endogenous in HeLa)) (UniProt O43865). As to the kind of experiment: native gel or EMSA; 2D blue-native / SDS-PAGE of a digitonin-solubilised crude mitochondria fraction of HeLa cells; second dimension analysed by western blot.
For assay [4], the target named is endogenous IP3R3 (human (endogenous in HeLa)) (UniProt Q14573). The assay is described as follows: co-IP; endogenous proteins immunoprecipitated from HeLa cell extract in TNE buffer (10 mM Tris-HCl pH 7.4, 200 mM NaCl, 1 mM EDTA, 0.2% NP-40), 4°C, Protein-G sepharose, western blot.
The target in assay [5] is endogenous IP3R1 (human (endogenous in HeLa)) (UniProt Q14643). The description is as above.
For assay [6], the target named is endogenous IP3R2 (human (endogenous in HeLa)) (UniProt Q14571). Described as above.
Assay [7] concerns the target endogenous IRBIT (human (endogenous in HeLa)) (UniProt O43865). The assay is described as above.
Assay [8] has as its target GST-IP3BD (UniProt P11881). As to the kind of experiment: pull-down; 10 μg GST fusion protein incubated with lysates of transfected HeLa cells, TNE buffer, 4°C, glutathione-Sepharose 4B, elution with 20 mM glutathione, western blot; for HA-IRBIT also with co-expressed FLAG-Bcl2l10 and with 0, 1 or 10 µM IP3; only the target purified. This is another data set of the same source.

“HA-tagged IRBIT with the first 104 amino acids deleted (from UniProt Q80SW1 105-530) (domain or fragment)”: the binding result in assay [1] is “binds”. As to “EGFP-IRBIT 1–169 (from UniProt Q80SW1 1-169) (domain or fragment)”, the binding result in assay [1] is reported as “binds weakly”. Same read-out and setting: the same measure for “EGFP-IRBIT 1–201 (from UniProt Q80SW1 1-201) (domain or fragment)”: “binds”; for “EGFP-IRBIT 1–231 (from UniProt Q80SW1 1-231) (domain or fragment)”: “binds”.

For “EGFP-IRBIT 1–104 (from UniProt Q80SW1 1-104) (domain or fragment)”, in assay [1], the binding entry is reported as “no binding”. On to “HA-IRBIT S68A (from UniProt Q80SW1 1-530)”, for which the binding entry in assay [1] is recorded as “binds”.

As for HA-IRBIT (from UniProt Q80SW1 1-530), the binding entry in assay [1] and in assay [2] was “binds” in each case. As to “EGFP-IRBIT 1–138 (from UniProt Q80SW1 1-138) (domain or fragment)”, the binding entry in assay [1] was “no binding”.

B1: endogenous Bcl2l10 (protein, UniProt Q9HD36 1-204)
chain: MVDQLRERTTMADPLRERTELLLADYLGYCAREPGTPEPAPSTPEAAVLRSAAARLRQIHRSFFSAYLGYPGNRFELVALMADSVLSDSPGPTWGRVVTLVTFAGTLLERGPLVTARWKKWGFQPRLKEQEGDVARDCQRLVALLSSRLMGQHRAWLQAQGGWDGFCHFFRTPFPLAFWRKQLVQAFLSCLLTTAFIYLWTRLL
B1: the binding entry in assay [3], in assay [4], in assay [5], in assay [6] and in assay [7] was “binds” throughout.

B2: FLAG-Bcl2l10 (protein, UniProt Q9HD36 1-204)
chain: MVDQLRERTTMADPLRERTELLLADYLGYCAREPGTPEPAPSTPEAAVLRSAAARLRQIHRSFFSAYLGYPGNRFELVALMADSVLSDSPGPTWGRVVTLVTFAGTLLERGPLVTARWKKWGFQPRLKEQEGDVARDCQRLVALLSSRLMGQHRAWLQAQGGWDGFCHFFRTPFPLAFWRKQLVQAFLSCLLTTAFIYLWTRLL
For B2, in assay [8], the binding result is “binds”.
